Reference: PubChem BioAssay (NCATS)
Values joined by “and” are separate entries in the source; they are usually repeats but may differ in a detail not shown here. Identical values can stand only once. Inconclusive results, whose numbers are uncertain, are shown with a selection of clear calls. For some of these results: Potencies beside an inconclusive call are fits to weak or partial responses and may not hold up. For some of these results: A note “side channel” means that the fit belongs to a control or component signal, not to the main read-out. Active and inactive are the calls of the source. Unless noted, the call rests on the fitted dose curve.

Columns and labels:
[1] = MultiTox-Fluor Cytotoxicity Assay - LYMP1-002 - Dead Cells (AID 960; active means well fitted curve in the direction sought with a large enough effect; inconclusive means small, poorly fitted or top-dose-only effect, or another doubt; inactive means no such curve, though single readings can be large; an effect the other way counts as inactive or inconclusive; further: nearly all actives have a fitted effect of over 60% in size; further: potency means the concentration at half of the fitted maximal effect); settings: LYMP1-002 lymphoblastoid cells, dead-cell protease fluorescence; cytotoxicity (dead cells): at 46.1 µM (top of the series)
Outline: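 LYMP1-002 cells 2500/well; 5 hr 37 C pre-incubation; compound 16 hr 37 C; MultiTox-Fluor reagent 60 min RT; dead-cell fluor Ex/Em 485/520. Norm. to DMSO (0%) vs 15 uM tetraoctylammonium bromide (100%); Hill AC50.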

[2] = Cell Viability - LYMP2-003 (AID 965; active means well fitted curve in the direction sought with a large enough effect; inconclusive means small, poorly fitted or top-dose-only effect, or another doubt; inactive means no such curve, though single readings can be large; an effect the other way counts as inactive or inconclusive;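 further: cells exposed to compounds for 24 h before reading; nearly all actives have a fitted effect of over 50% in size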; further: potency means the concentration at half of the fitted maximal effect;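 on activity change, negative = cytotoxicity: 0% = DMSO only and full effect = 92 µM tetraoctylammonium bromide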); settings: LYMP2-003 lymphoblastoid cell viability; activity change, negative = cytotoxicity: at 92.2 µM (top of the series)
Outline: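 Acute cytotoxicity is scored as a concentration-dependent drop in intracellular ATP, measured by luciferase luminescence in human lymphoblastoid cells treated for 24 hours at 37 C. AC50 values derive from Hill-equation modelling.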

[3] = target: Bile acid receptor (Homo sapiens) (UniProt Q96RI1); assay: qHTS assay for small molecule antagonists of farnesoid X receptor signaling (AID 588526); settings: HEK293T FXR-UAS-bla, beta-lactamase ratio, antagonist mode; activity change, negative = inhibition: at 76.7 µM (top of the series); further: potency means the concentration at half of the fitted maximal effect; on activity change, negative = inhibition: on the % scale 0 is the no-effect control and ±100 the full control effect
Outline: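 Concentration-response titrations were fitted to the Hill equation for half-maximal inhibition and maximal response, with data normalised to 50 uM chenodeoxycholic acid and DMSO control wells. Cells: FXR-UAS-bla HEK293T, dialyzed FBS.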

[4] = target: Glucocorticoid receptor (Homo sapiens) (UniProt P04150); assay: qHTS assay for small molecule antagonists of glucocorticoid receptor signaling (AID 588533; active means well fitted inhibition curve with a large enough effect in the signal ratio, with a control signal flat, not every such curve was filed as active; inconclusive means small, poorly fitted or top-dose-only effect, or effect the other way, or a change in a side signal; the % refers to the signal ratio;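 further: cells stimulated with 2 nM dexamethasone as agonist; on the % scale 0 is the no-effect control and ±100 the full control effect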); settings: HeLa MMTV-bla, GRE beta-lactamase ratio, antagonist mode, 18 h; activity change, negative = inhibition: at 76.8 µM (top of the series)
Sequence of UniProt P04150 (P04150 whole entry, looked up): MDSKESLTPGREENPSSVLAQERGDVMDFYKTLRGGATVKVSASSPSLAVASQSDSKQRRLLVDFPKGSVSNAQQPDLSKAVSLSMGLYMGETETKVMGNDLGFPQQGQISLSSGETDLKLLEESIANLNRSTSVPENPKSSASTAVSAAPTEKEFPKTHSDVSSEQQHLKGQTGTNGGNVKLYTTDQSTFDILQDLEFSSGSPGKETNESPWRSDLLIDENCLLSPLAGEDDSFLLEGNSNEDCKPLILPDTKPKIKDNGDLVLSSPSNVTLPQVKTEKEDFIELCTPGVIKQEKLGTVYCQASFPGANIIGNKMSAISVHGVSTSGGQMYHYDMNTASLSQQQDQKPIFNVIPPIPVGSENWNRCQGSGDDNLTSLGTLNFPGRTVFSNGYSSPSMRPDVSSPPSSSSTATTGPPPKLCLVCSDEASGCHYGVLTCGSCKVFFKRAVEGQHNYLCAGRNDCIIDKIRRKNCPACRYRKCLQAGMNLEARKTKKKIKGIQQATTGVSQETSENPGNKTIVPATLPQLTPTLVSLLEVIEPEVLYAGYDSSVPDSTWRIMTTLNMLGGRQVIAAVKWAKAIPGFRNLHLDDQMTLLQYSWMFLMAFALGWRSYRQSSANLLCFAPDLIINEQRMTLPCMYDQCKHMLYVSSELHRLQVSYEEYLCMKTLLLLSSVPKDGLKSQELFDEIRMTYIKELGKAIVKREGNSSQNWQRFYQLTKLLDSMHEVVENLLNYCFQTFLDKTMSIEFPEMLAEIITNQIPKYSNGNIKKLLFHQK

[5] = target: Peroxisome proliferator-activated receptor gamma (Homo sapiens) (UniProt P37231); assay: qHTS assay for small molecule agonists of peroxisome proliferator-activated receptor gamma signaling (AID 588536; active means well fitted curve in the direction sought with a large enough effect in the signal ratio, with a control signal flat, not every such curve was filed as active; inconclusive means small, poorly fitted or top-dose-only effect, or effect the other way, or a change in a side signal; inactive means no such curve, though single readings can be large or run the other way; the % refers to the signal ratio;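 further: 0% = DMSO basal wells and 100% = rosiglitazone at 2 µM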); settings: HEK293 PPARg-UAS-bla, beta-lactamase ratio, 16 h; activation: at 76.7 µM (top of the series), percent of rosiglitazone response, DMSO as zero
Sequence of UniProt P37231 (P37231 whole entry, looked up): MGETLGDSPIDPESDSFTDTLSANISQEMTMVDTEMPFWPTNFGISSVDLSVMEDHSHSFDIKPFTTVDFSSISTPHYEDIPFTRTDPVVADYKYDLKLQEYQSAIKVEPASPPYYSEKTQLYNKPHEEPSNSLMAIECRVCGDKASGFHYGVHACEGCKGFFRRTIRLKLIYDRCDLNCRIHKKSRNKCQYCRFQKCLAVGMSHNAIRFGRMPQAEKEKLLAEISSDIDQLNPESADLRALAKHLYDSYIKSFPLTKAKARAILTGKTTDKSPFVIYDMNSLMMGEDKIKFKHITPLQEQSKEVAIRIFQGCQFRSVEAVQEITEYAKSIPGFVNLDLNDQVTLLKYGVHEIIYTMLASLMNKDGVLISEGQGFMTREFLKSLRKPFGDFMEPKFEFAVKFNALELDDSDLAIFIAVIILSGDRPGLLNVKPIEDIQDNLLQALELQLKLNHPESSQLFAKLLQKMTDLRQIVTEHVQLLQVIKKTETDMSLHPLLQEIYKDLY
Outline: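 GeneBLAzer PPAR-gamma-UAS-bla HEK293 cells in 1% charcoal/dextran-treated FBS medium were treated 16 h at 37 C with compounds. Beta-lactamase activity was read by CCF4 ratio (460/530 nm). Response was normalized to 2 uM rosiglitazone (100%) and DMSO, then Hill-fitted for EC50 and efficacy.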

[6] = target: Thyroid hormone receptor beta (Homo sapiens) (UniProt P10828); assay: qHTS assay for small molecule antagonists of thyroid hormone receptor beta signaling (AID 588547; active means well fitted inhibition curve with a large enough effect in the signal ratio, with a control signal flat, not every such curve was filed as active; inconclusive means small, poorly fitted or top-dose-only effect, or effect the other way, or a change in a side signal; the % refers to the signal ratio; further: potency means the concentration at half of the fitted maximal effect); settings: TR-UAS-bla HEK293, beta-lactamase ratio, antagonist mode, 18 h
Sequence of UniProt P10828 (P10828 whole entry, looked up): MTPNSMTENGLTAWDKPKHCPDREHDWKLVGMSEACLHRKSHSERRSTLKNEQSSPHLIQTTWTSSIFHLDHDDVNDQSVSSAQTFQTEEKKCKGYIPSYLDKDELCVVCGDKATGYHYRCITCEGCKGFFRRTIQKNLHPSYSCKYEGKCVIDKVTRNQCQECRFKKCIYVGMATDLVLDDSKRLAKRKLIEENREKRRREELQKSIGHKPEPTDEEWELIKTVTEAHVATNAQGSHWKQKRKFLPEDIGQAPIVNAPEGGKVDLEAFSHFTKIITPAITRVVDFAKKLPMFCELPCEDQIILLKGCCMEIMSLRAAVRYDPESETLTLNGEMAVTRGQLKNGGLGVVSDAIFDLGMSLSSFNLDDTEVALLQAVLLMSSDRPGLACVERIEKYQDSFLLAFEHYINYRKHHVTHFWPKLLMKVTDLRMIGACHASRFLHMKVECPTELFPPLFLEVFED
Outline: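 TR-UAS-bla GripTite HEK293 cells in 2% charcoal/dextran FBS medium were preincubated 4 h at 37 C, given compound (0.59 nM to 92 uM) plus 0.4 nM T3 (final) for 18 h, then CCF4 for 2 h at RT; Hill fit gave IC50.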

[7] = qHTS assay for small molecule agonists of the antioxidant response element (ARE) signaling pathway (AID 651741; active means well fitted activation curve with a large enough effect in the signal ratio; inconclusive means small, poorly fitted or top-dose-only effect, or effect the other way, or a change in a side signal; the % refers to the signal ratio; further: potency means the concentration at half of the fitted maximal effect; on activation: % of control where 0% means no effect); settings: HepG2 ARE-bla reporter, beta-lactamase FRET ratio, 16 h; activation: at 96 µM (top of the series) unless noted
Outline: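 Compounds in DMSO are pinned onto HepG2 ARE-bla cells (2,000/well) that were preincubated 5 h; plates stay 16 h at 37 C, then beta-lactamase activity is detected with LiveBLAzer B/G substrate by fluorescence.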

[8] = qHTS assay to identify small molecules that stimulate interleukin-8 (IL-8) secretion (AID 651758; active means well fitted activation curve with a large enough effect in the signal ratio; inconclusive means small, poorly fitted or top-dose-only effect, or effect the other way, or a change in a side signal; the % refers to the signal ratio; further: 0% is about no effect); settings: HTRF ratio (665/615); activation: at 92.2 µM (top of the series)
Outline: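 THP-1, 2000 cells/well; cpd 16 h, 37 C; add cryptate + XL665 anti-IL-8 Abs; RT 1-3 h; TR-FRET read.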

[9] = qHTS assay for cell viability of the p53RE-bla HCT-116 cell line (AID 743292; active means well fitted curve in the direction sought with a large enough effect; inconclusive means small, poorly fitted or top-dose-only effect, or another doubt; inactive means no such curve, though single readings can be large; an effect the other way counts as inactive or inconclusive; further: on the % scale 0 is the no-effect control and ±100 the full control effect; nearly all actives have a fitted effect of over 55% in size)
Outline: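 CellSensor p53RE-bla HCT-116 cells, 4,000/well, preincubated 5 h at 37 C, then exposed to compounds in DMSO for 16 h at 37 C. Viability read as CellTiter-Glo luminescence (intracellular ATP) after 30 min at room temperature.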

[10] = target: Nuclear receptor subfamily 1 group I member 2 (Rattus norvegicus) (UniProt Q9R1A7); assay: qHTS assay for small molecule activators of the rat pregnane X receptor (rPXR) signaling pathway (AID 651751; call rule not given here; further: 0% is about no effect); settings: rPXR reporter cells, luciferase (One-Glo), 24 h
Sequence of UniProt Q9R1A7 (Q9R1A7 whole entry, looked up): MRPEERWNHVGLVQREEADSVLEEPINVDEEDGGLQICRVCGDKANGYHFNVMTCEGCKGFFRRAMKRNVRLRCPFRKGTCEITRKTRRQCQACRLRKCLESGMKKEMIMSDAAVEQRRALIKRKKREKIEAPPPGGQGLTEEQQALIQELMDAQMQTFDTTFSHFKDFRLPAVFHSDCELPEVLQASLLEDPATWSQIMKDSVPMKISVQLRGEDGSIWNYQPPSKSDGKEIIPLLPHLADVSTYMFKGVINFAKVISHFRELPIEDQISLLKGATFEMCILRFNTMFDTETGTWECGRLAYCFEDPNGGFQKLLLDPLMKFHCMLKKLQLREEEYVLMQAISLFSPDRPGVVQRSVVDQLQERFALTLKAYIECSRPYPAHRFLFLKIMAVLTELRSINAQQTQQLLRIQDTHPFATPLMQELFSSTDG

[11] = target: Peroxisome proliferator-activated receptor delta (Homo sapiens) (UniProt Q03181); assay: qHTS assay for small molecule antagonists of peroxisome proliferator-activated receptor delta signaling (AID 588535; active means well fitted inhibition curve with a large enough effect in the signal ratio, with a control signal flat, not every such curve was filed as active; inconclusive means small, poorly fitted or top-dose-only effect, or effect the other way, or a change in a side signal; inactive means no such curve, though single readings can be large or run the other way; the % refers to the signal ratio); settings: HEK293T PPARd-UAS-bla, beta-lactamase FRET ratio, 18 h; activity change, negative = inhibition: at 76.7 µM (top of the series) unless noted
Sequence of UniProt Q03181 (Q03181 whole entry, looked up): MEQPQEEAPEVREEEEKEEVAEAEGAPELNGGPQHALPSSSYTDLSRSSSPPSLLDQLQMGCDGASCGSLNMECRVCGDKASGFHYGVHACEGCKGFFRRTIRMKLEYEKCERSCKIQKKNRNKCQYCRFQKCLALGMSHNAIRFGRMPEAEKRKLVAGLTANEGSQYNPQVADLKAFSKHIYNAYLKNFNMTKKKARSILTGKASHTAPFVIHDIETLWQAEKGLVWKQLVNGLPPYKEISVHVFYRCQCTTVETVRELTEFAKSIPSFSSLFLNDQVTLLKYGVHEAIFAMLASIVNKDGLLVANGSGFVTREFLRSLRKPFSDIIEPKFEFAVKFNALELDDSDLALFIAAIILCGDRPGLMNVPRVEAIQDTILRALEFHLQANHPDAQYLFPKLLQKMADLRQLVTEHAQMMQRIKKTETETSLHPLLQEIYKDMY
Outline: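 Reporter: UAS-bla under PPAR-delta response element, HEK293T host. Medium: 2% charcoal/dextran FBS. Dosing: titration, 18 hrs, 37 C. Detection: CCF4, 2 hrs RT, 405 ex/460 and 530 em.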

[12] = qHTS assay for small molecule agonists of the antioxidant response element (ARE) signaling pathway measured by Nrf2-dependant transcriptional activity (AID 720636; active means well fitted curve in the direction sought with a large enough effect in the repeat runs; inconclusive means weak or mixed curves; inactive means no such curve, though single readings can be large; an effect the other way counts as inactive or inconclusive; further: potency means the concentration at half of the fitted maximal effect)
Outline: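 ARE-luc HepG2 cells carrying an Nrf2-responsive luciferase reporter were plated in medium with 1% dialyzed FBS, left 6 hr at 37 C to attach, then exposed to compound for 16 hr. Luciferase luminescence was read after ONE-Glo addition.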

[13] = target: Thyroid hormone receptor beta (Homo sapiens) (UniProt P10828); assay: qHTS assay for small molecule agonists of thyroid hormone receptor beta signaling (AID 588545); settings: TR-UAS-bla GripTite HEK 293, beta-lactamase ratio, agonist mode, 18 h; activation: at 76.7 µM, percent of T3 response, DMSO as zero
Outline: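 Agonist activity was read as beta-lactamase CCF4 fluorescence (405 ex, 460/530 em), scaled between DMSO (0%) and 10 nM T3 (100%), then Hill-fitted for EC50 and efficacy. HEK 293 TR-UAS-bla cells in 2% charcoal/dextran FBS medium were exposed 18 h at 37 C.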

[14] = Cellular Toxicity (caspase-3) SK-N-SH (AID 661; active means well fitted curve in the direction sought with a large enough effect; inconclusive means small, poorly fitted or top-dose-only effect, or another doubt; inactive means no such curve, though single readings can be large; an effect the other way counts as inactive or inconclusive;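 further: 0% = DMSO basal and 100% = 10 µM staurosporine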); settings: SK-N-SH caspase-3 activation, qHTS, DMSO as zero, staurosporine as full; at 91.7 µM (top of the series)
Outline: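 Human neuroblastoma SK-N-SH, 1500 cells/well, 5 hr pre-incubation, then compound 16 hr, 37 °C. Caspase-Glo 3/7 reagent, 1 hr RT, luminescence. Norm. to DMSO/10 uM staurosporine; Hill-fit AC50.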

[15] = target: Bile acid receptor (Homo sapiens) (UniProt Q96RI1); assay: qHTS assay for small molecule agonists of farnesoid X receptor signaling (AID 588527); settings: HEK293T FXR-UAS-bla, beta-lactamase ratio, 16 h; activation: stronger effect = higher value; further: potency means the concentration at half of the fitted maximal effect;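 on activation: 0% = vehicle basal and 100% = reference agonist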
Outline: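 FXR-UAS-bla HEK293T cells (10% dialyzed FBS) preincubated 5-7 h at 37 C, then compounds at up to 92 uM for 16 h at 37 C. CCF4 beta-lactamase read-out after 2 h RT. Normalized to chenodeoxycholic acid (100 uM) and DMSO; Hill fit gave EC50 and efficacy.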

[16] = Cell Viability - LYMP2-008 (AID 980; active means well fitted curve in the direction sought with a large enough effect; inconclusive means small, poorly fitted or top-dose-only effect, or another doubt; inactive means no such curve, though single readings can be large; an effect the other way counts as inactive or inconclusive;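 further: cells exposed to compound for 24 h at 37 °C; on the % scale 0 is the no-effect control and ±100 the full control effect; nearly all actives have a fitted effect of over 60% in size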)
Outline: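 qHTS, human lymphoblastoid line, 2500 cells/well; 5 hr preincubation, 24 hr compound, 37 C. CellTiter-Glo ATP luminescence. AC50 via Hill equation. Tetraoctylammonium bromide positive control.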

[17] = Cell Viability - LYMP2-016 (AID 984; active means well fitted curve in the direction sought with a large enough effect; inconclusive means small, poorly fitted or top-dose-only effect, or another doubt; inactive means no such curve, though single readings can be large; an effect the other way counts as inactive or inconclusive;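 further: cells exposed to compound for 24 hours at 37 °C; on the % scale 0 is the no-effect control and ±100 the full control effect; nearly all actives have a fitted effect of over 55% in size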)
Outline: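 Acute toxicity in a Coriell human lymphoblastoid line is scored as loss of intracellular ATP over 24 h of treatment in complete medium. CellTiter-Glo signal is fitted across concentrations with the Hill equation to give AC50.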

[18] = target: Peroxisome proliferator-activated receptor gamma (Homo sapiens) (UniProt P37231); assay: qHTS assay for small molecule antagonists of peroxisome proliferator-activated receptor gamma signaling (AID 588537; active means well fitted inhibition curve with a large enough effect in the signal ratio, with a control signal flat, not every such curve was filed as active; inconclusive means small, poorly fitted or top-dose-only effect, or effect the other way, or a change in a side signal; the % refers to the signal ratio;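 further: reporter cells co-stimulated with 50 nM rosiglitazone agonist during compound treatment; % of control where 0% means no effect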); settings: HEK293 PPARg-UAS-bla, beta-lactamase ratio, antagonist mode; activity, negative = inhibition: at 76.8 µM (top of the series) unless noted
Outline: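 We seeded GeneBLAzer HEK293 reporter cells at 3000 per well, allowed 6-6.5 h attachment at 37 C, then co-treated with test compound titrations and 50 nM rosiglitazone overnight (16 h). Inhibition was quantified from 460/530 nm emission ratios.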

[19] = target: Retinoic acid receptor RXR-alpha (Homo sapiens) (UniProt P19793); assay: qHTS assay for small molecule agonists of retinoid X receptor alpha signaling (AID 588544); settings: HEK293T RXRa-UAS-bla, beta-lactamase reporter, 18 h; activation: at 76.7 µM (top of the series); further: potency means the concentration at half of the fitted maximal effect;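 on activation: 0% = DMSO basal wells and 100% = reference agonist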
Sequence of UniProt P19793 (P19793 whole entry, looked up): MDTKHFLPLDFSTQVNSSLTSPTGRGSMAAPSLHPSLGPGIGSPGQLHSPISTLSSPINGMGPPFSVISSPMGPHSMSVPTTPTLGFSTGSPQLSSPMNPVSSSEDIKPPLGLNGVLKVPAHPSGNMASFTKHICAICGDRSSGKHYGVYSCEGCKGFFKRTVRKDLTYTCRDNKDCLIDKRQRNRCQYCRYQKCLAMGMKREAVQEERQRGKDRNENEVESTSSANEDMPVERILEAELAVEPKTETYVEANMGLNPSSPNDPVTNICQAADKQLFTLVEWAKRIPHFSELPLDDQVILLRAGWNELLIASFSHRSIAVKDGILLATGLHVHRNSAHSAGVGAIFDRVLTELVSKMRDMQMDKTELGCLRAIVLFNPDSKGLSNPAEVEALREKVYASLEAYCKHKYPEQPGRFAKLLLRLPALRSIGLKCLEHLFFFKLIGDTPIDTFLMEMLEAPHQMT

[20] = qHTS assay for small molecule antagonists of the retinoid-related orphan receptor gamma (ROR-gamma) signaling pathway - cell viability counter screen (AID 720652; active means well fitted curve in the direction sought with a large enough effect in the repeat runs; inconclusive means weak or mixed curves; inactive means no such curve, though single readings can be large; an effect the other way counts as inactive or inconclusive;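 further: compound exposure lasted 16 hr before ATP read; on the % scale 0 is the no-effect control and ±100 the full control effect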)
Outline: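 Luminescence from CellTiter-Glo after 30 min at room temperature reported cellular ATP as the cytotoxicity measure. Cells were the CHO reporter line with doxycycline-induced ROR-gamma expression, exposed to compound for 16 hr at 37 C.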

[21] = target: Vitamin D3 receptor (Homo sapiens) (UniProt P11473); assay: qHTS assay for small molecule agonists of vitamin D receptor signaling (AID 588543); settings: HEK293T VDR-UAS-bla, beta-lactamase ratio, 16 h; activation: at 76.8 µM (top of the series);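 further: 0% = DMSO basal and 100% = reference agonist control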
Sequence of UniProt P11473 (P11473 whole entry, looked up): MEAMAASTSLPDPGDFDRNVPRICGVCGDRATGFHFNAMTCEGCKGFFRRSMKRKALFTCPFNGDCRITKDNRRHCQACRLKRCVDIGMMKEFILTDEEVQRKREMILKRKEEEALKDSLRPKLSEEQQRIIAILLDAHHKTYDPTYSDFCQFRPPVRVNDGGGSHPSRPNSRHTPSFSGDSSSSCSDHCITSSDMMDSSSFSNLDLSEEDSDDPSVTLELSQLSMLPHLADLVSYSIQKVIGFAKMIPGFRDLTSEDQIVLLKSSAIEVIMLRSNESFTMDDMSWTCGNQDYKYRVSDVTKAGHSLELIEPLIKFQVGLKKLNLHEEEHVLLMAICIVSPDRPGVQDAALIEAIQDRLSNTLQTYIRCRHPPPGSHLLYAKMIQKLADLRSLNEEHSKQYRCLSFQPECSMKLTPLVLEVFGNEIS
Outline: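 qHTS in agonist mode: compound titrations stimulate a VDR-driven β-lactamase reporter in HEK293T cells over 16 h at 37 °C. Response normalized to 50 nM 1α,25-dihydroxyvitamin D3 = 100%, DMSO = 0%; Hill fitting gives EC50 and maximal response.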

[22] = qHTS assay for small molecule activators of the nuclear factor-kappa B (NF-kB) signaling pathway (AID 651749; active means well fitted activation curve with a large enough effect in the signal ratio; inconclusive means small, poorly fitted or top-dose-only effect, or a change in a side signal; the % refers to the signal ratio; further: potency means the concentration at half of the fitted maximal effect); settings: NF-kB-bla ME-180 cells, beta-lactamase FRET ratio, 16 h; activation: stronger effect = higher value
Outline: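 Screening used 2,000 ME-180 reporter cells per well exposed to pinned compound (23 nL) or DMSO; after 16 hr at 37C, beta-lactamase expression under NF-kB control was assessed through FRET.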

[23] = qHTS assay for small molecule agonists of the antioxidant response element (ARE) signaling pathway measured by Nrf2-dependant transcriptional activity - cell viability counter screen (AID 720653; active means well fitted curve in the direction sought with a large enough effect in the repeat runs; inconclusive means weak or mixed curves; inactive means no such curve, though single readings can be large; an effect the other way counts as inactive or inconclusive; further: on the % scale 0 is the no-effect control and ±100 the full control effect); settings: ARE-bla HepG2 viability, CellTiter-Glo ATP luminescence, 16 h; max response: stronger effect = lower value
Outline: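 ARE-bla HepG2 cells (2,000/well) rested 5 hrs at 37C/5% CO2, then exposed to compounds in DMSO for 16 hrs. Viability was read in the same wells as intracellular ATP by luminescence, 30 min at room temperature after reagent addition.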
Tags describe the fitted curve by direction and shape or compound fluorescence and quenching.

Clc1ccc(Cl)c(Cl)c1Cl
inactive: Potency [1] | Potency [2] | Potency [3] | Potency [4] | Potency [5] | Potency [7] | Potency [9] | max response [10] -5.98% and -1.32%
inconclusive: Potency [6] 1.26 µM [side channel, falling, full curve, poor fit] | activation [8] -6.41%

CC(Cl)(Cl)C(=O)OCCOc1cc(Cl)c(Cl)cc1Cl
inactive: Potency [3] | Potency [11]
inconclusive: Potency [6] 0.0141 µM [side channel, falling, full curve, poor fit] | Potency [7] 48.6 µM [activator, partial curve, poor fit] | Potency [12] 12.2 µM [activator, full curve, poor fit]

CC(C)OB(OC(C)C)OC(C)C
inconclusive: Potency [3] 35.5 µM [cytotoxic, side channel, partial curve, poor fit] | activation [13] 7% | Potency [6] 63.1 µM [side channel, falling, partial curve, poor fit]

c1ccc(Oc2ccccc2)cc1
inconclusive: Potency [1] 31.6 µM [cytotoxic, single point] | Potency [2] 79.4 µM [rising, single point] | Potency [15] 0.004 µM [side channel, falling, full curve, poor fit] | Potency [7] 75 µM [activator, partial curve] and 61.1 µM [activator, single point]
inactive: caspase-3 activation [14] 1.48% | Potency [3] | activity change % (negative = inhibition) [6] 13.9% and 3.24% | Potency [8]

Nc1ccc(Cl)cc1Cl
inconclusive: Potency [19] 44.7 µM [activator, partial curve, poor fit] | Potency [7] 54.5 µM [activator, partial curve] | activation [7] 10.6% | activation [8] 2.36%
inactive: Potency [16] | Potency [17] | Potency [3] | Potency [18] | activation [13] -8.21% and -1.1% | activity change % (negative = inhibition) [6] -5.09% and -14.9% | Potency [20]

CCCCNS(=O)(=O)c1ccccc1
inactive: Potency [3] | activation [15] 2.61%
inconclusive: activation [19] 58.6% | activation [7] 13.2%

C=CCCCCCCCCCCCC
inconclusive: Potency [15] 0.0013 µM | Potency [6] 1.12 µM [cytotoxic, side channel, full curve, poor fit] | Potency [7] 61.1 µM [activator, single point] | Potency [22] 25.1 µM [activator, single point]
inactive: Potency [3] | Potency [21] | activation [13] -0.284% | max response [23] 1.55%
